Hit rate of the full screen: of about 350,000 compounds, about 2,100 (0.6%) were called active. Inconclusive means that the source gave no clear call. Such entries were picked first, then a sample of the others.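 Rule for the calls: active = activity change of -60% or lower, but not beyond a set lower limit; inconclusive = change between -60% and -40%, or beyond the set limit; inactive = change above -40%.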
target: Relaxin receptor 1 (Homo sapiens) (UniProt Q9HBX9); assay: qHTS Assay for Antagonists of the Relaxin Receptor RXFP1; conditions: HEK293-RXFP1, relaxin-stimulated cAMP HTRF, 30 min; at 57.5 µM; stronger effect = lower value
% is set by controls: 0 for no effect and ±100 for the full control effect.

Sequence of UniProt Q9HBX9 (Q9HBX9 whole entry, looked up): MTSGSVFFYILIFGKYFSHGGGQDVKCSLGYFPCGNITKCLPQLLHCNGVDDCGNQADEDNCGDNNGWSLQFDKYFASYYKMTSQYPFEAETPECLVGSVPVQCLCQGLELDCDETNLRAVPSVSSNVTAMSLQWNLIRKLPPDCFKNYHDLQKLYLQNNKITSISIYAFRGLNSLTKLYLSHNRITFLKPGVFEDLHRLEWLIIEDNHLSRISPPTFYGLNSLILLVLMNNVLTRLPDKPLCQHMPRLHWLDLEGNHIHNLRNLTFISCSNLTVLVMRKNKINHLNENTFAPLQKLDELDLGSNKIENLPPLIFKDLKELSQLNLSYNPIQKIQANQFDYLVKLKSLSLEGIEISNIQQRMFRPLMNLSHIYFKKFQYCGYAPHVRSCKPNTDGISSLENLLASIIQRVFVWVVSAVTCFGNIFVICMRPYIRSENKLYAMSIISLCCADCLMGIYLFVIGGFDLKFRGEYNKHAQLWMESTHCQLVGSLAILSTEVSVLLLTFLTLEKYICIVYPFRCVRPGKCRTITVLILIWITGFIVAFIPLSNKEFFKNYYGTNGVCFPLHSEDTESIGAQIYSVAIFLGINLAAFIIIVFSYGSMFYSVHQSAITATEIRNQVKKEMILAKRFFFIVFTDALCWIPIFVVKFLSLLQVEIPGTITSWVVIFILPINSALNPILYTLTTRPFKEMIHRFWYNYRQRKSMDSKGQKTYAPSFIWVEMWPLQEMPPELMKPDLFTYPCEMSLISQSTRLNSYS

Row | SMILES | activity change, negative = inhibition
1 | O=c1ccc(/C=C/c2ccccc2)nn1Cc1ccc(F)cc1 | inconclusive: -56.9%
2 | O=C(Cn1cc(SCc2cccc(C(F)(F)F)c2)c2ccccc21)N1CCCCCC1 | inconclusive: -50.1%
3 | COc1cc(/C=C2\SC(=S)N(Nc3ncc(C(F)(F)F)cc3Cl)C2=O)ccc1O | active: -74.3%
4 | CC(C)Nc1nc(NC(N)=S)nc(NC(C)(C)C)n1 | inconclusive: -40.7%
5 | CCN(CC)CC(O)c1ccc2ccc3ccc(O)cc3c2c1 (centres undefined) | inconclusive: -40.4%
6 | CCOC(=O)Cn1nnc(-c2ccccc2)n1 | inactive: 7.39%
7 | O=C(CCCCCn1c(=S)[nH]c2ccc(N3CCOCC3)cc2c1=O)NCc1ccc(Cl)cc1 | active: -92.4%
8 | C=C(C)COc1ccc(-c2ncncc2-c2ccc(Br)cc2)c(O)c1 | inconclusive: -43.4%
9 | O=C1C(=O)N(CCCN2CCOCC2)C(c2ccc(Cl)cc2)/C1=C(\O)c1ccc2c(c1)OCCO2 (centres undefined) | inactive: 28.9%
10 | NC(=O)c1ccsc1NC(=O)COC(=O)Cc1c[nH]c2ccccc12 | inactive: 0.465%
11 | COc1ccc(C(=O)N(CCc2ccccc2)Cc2ccccc2)c(OC)n1 | inconclusive: -54.9%
12 | O=[n+]1c2c(n([O-])c3cc(F)c(N4CCCC4)cc31)CCC2 | inactive: -2.93%
13 | CC(C)Cc1nc(N2CCN(C(=O)C(C)C)CC2)c(C#N)c2c1CCC2 | inconclusive: -57.8%
14 | CCCCN(C)C(=O)CCCCn1c(=O)[nH]c2cc(OCC)c(OCC)cc2c1=O | inactive: 18.8%
15 | O=S(=O)(O)c1cc(O)c2c(O)c(N=Nc3cc(Cl)ccc3O)c(S(=O)(=O)O)cc2c1 | inconclusive: -55.2%
16 | O=[N+]([O-])c1ccc(N=Nc2ccc(O)c3ccccc23)cc1 | inconclusive: -40.8%
17 | OC1(c2cccc(C(F)(F)F)c2)CCN(c2ncnc3c2[nH]c2ccc(F)cc23)CC1 | active: -89.1%
18 | CCOc1ccc(-c2nnn(CC(=O)NCc3ccccc3)n2)cc1 | inconclusive: -47.9%
19 | CC1CCc2c(sc3nnn(CC(=O)Nc4ccccc4Cl)c(=O)c23)C1 (centres undefined) | inconclusive: -41.7%
20 | COc1ccc(N2C(=O)C3CCCCC3C2=O)cc1NC(=O)c1ccccc1 (centres undefined) | inconclusive: -54.3%
21 | COc1ccc(NC(=O)C/C(C)=N/NC(=O)c2ccco2)c([N+](=O)[O-])c1 | active: -66.2%
22 | O=C(CCC1N=C2c3ccccc3N=C(SCc3cccc(Cl)c3)N2C1=O)NCc1ccco1 (centres undefined) | inactive: 1.39%
23 | CCN(C(=O)c1nn(C)c2c1CSc1ccccc1-2)c1cccc(C)c1 | inactive: -25.4%
24 | O=C(Nc1cccc(NC(=O)c2ccccc2Cl)c1)c1ccc([N+](=O)[O-])o1 | inactive: 29.9%
